# Experimental data taken from the supplement of paper PMC4166925.
# ± gives the standard deviation of the averaged measurements. Over roughly 33,000 sequences, “E-score (dimensionless, -0.5 to 0.5)” has its median near -0.049; the highest 2% begin near 0.37. The list shows a part of the results.
# System: T1, PmTbr T-box DNA-binding domain (GST fusion)
# T1 sequence: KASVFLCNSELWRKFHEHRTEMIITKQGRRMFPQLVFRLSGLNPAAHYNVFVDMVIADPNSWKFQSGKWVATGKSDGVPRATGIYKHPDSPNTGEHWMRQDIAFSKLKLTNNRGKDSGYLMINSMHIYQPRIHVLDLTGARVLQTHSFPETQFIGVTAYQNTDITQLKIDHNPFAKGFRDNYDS
# Test: PBM E-score of 8-mer (E-score (dimensionless, -0.5 to 0.5)); Tbr is Tbrain of the sea star Patiria miniata (Pm) or the sea urchin Strongylocentrotus purpuratus (Sp); higher = stronger binding preference; most listed sequences are background and not binding sites
# Conditions: the construct has about 5 more residues each side
# Outline: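 Expression of GST-fused Tbr T-box DNA-binding domains, each holding the full T-box plus roughly five flanking residues, was carried out in BL21 E. coli at 20 °C, with purification by glutathione affinity chromatography. Universal Agilent arrays made double-stranded by primer extension were incubated with the protein at 200 nM in PBS (pH 7.5), then scanned and quantified. All ungapped 8-mers were scored from probe intensities, and each received an enrichment E-score from the Universal PBM Analysis Suite, averaged over duplicate arrays.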
row,Sequence,PBM E-score of 8-mer
1,AGATCATC,0.0358 ± 0.017
2,CAGGCAGC,0.0402 ± 0.07
3,ACAGCCTG,0.122 ± 0.014
4,CGGCACAC,0.124 ± 0.063
5,CATGATGG,-0.111 ± 0.0098
6,AGGTAGCC,-0.188 ± 0.07
7,GAAGCAGC,-0.0994 ± 0.0054
8,CATATTGC,0.0299 ± 0.017
9,CATCGGCC,-0.2345 ± 0.0021
10,ATTGTTGA,0.167 ± 0.0035
11,AAGTAGTG,0.124 ± 0.008
12,ATAACACA,0.3597 ± 0.0034
13,ATGCAAGC,-0.113 ± 0.026
14,AGTTAGAC,-0.197 ± 0.038
15,ATAGATCA,-0.236 ± 0.047
16,GGTAGCAA,0.168 ± 0.028
17,TATCTAGA,-0.141 ± 0.0091
18,AGTCAGAA,-0.159 ± 0.05
19,CTGGCAAC,0.184 ± 0.08
20,GATTGCAC,0.145 ± 0.011
21,CGAATTGA,-0.21 ± 0.018
22,TGTGAAAA,0.38 ± 0.057
23,ACATATAG,-0.1 ± 0.053
24,AAGGAACT,-0.103 ± 0.015
25,CTCCACCC,0.0426 ± 0.037

row,Sequence,PBM E-score of 8-mer
1,GATAGATA,-0.147 ± 0.035
2,GATCAGGA,-0.0417 ± 0.051
3,AAGATGGT,-0.0973 ± 0.0091
4,ACAGGACT,-0.0594 ± 0.0031
5,ACGTAAAG,-0.103 ± 0.042
6,CCTCTGCG,-0.0574 ± 0.059
7,AGTATTGA,-0.19 ± 0.082
8,AAACGACA,0.0771 ± 0.079
9,ACGCGTCG,0.308 ± 0.0062
10,CGATTTTC,0.191 ± 0.044
11,CGCGTGTA,0.0515 ± 0.031
12,TCTGTACA,0.0305 ± 0.035
13,CCTAGTCC,-0.0967 ± 0.023
14,AGATCTGA,-0.0413 ± 0.036
15,AAGGCGGG,-0.0464 ± 0.047
16,CTCAGCCC,-0.148 ± 0.021
17,GTCGCTCA,0.0523 ± 0.0048
18,TCCATCCA,-0.105 ± 0.033
19,TCCTTCAA,-0.269 ± 0.065
20,ACGATGTG,0.25 ± 0.067
21,CATTCTCC,0.0365 ± 0.027
22,AGCTACGA,-0.0695 ± 0.044
23,GACTAGTA,-0.0454 ± 0.07
24,ACTATTTC,-0.214 ± 0.055
25,ACCCCCCG,-0.0145 ± 0.075

row,Sequence,PBM E-score of 8-mer
1,ACAAGCTC,0.107 ± 0.052
2,CGAAGGAC,-0.124 ± 0.056
3,CACTGTCG,0.173 ± 0.04
4,GGCCAGCC,-0.316 ± 0.069
5,AATCAGAA,-0.143 ± 0.0045
6,ATCTCCAT,-0.0834 ± 0.041
7,AATTTGAG,-0.197 ± 0.047
8,GGACTGAC,-0.0902 ± 0.049
9,ATTTATTA,-0.251 ± 0.096
10,TTTGAAAA,-0.171 ± 0.074
11,TGGACAAA,0.026 ± 0.13
12,CCACTGAC,0.12373 ± 0.00011
13,GATATCAC,0.331 ± 0.021
14,CGTTGCAC,0.19 ± 0.043
15,CCGTTTCG,-0.117 ± 0.097
16,AATTCGAC,-0.0254 ± 0.029
17,ACAGTTCG,0.161 ± 0.025
18,CGCACCGA,0.0275 ± 0.11
19,AGAGCGTA,-0.331 ± 0.071
20,CTTGTGCA,-0.0805 ± 0.008
21,ACCCTACC,0.000975 ± 0.068
22,TACGATGA,-0.0054 ± 0.016
23,CCTGTAGC,0.122 ± 0.0057
24,CTCTGGGC,-0.0481 ± 0.025
25,GCCTTAAC,0.0844 ± 0.0024

row,Sequence,PBM E-score of 8-mer
1,AGGGGTAA,-0.18 ± 0.0035
2,AACACCGG,0.155 ± 0.04
3,CGAGGCGC,0.324 ± 0.02
4,AACCGGGG,-0.044 ± 0.017
5,GACGCGCA,-0.111 ± 0.016
6,AATGACGC,0.125 ± 0.0051
7,AGTGAGCA,0.0767 ± 0.028
8,ATCGAGAG,0.0224 ± 0.029
9,CGACGCGC,0.189 ± 0.041
10,TATCATAA,-0.00543 ± 0.023
11,CGAACCGC,-0.114 ± 0.061
12,GCGCACAC,0.158 ± 0.038
13,CGCAACGC,0.057 ± 0.051
14,ACAGTTTA,0.179 ± 0.038
15,GGGGATAC,-0.113 ± 0.01
16,CAAGTCAC,0.269 ± 0.022
17,GAGCACCC,-0.19 ± 0.1
18,CAGATTTC,0.0631 ± 0.017
19,CGGATTAC,-0.19 ± 0.02
20,CCTAGAGC,-0.0438 ± 0.027
21,CACGCCTA,0.365 ± 0.012
22,GGCTTTCA,-0.0688 ± 0.0027
23,GTTTCACA,0.36 ± 0.027
24,CGTTGGAG,-0.0771 ± 0.11
25,GCCGCCCA,-0.1517 ± 0.00064

row,Sequence,PBM E-score of 8-mer
1,GACTGCCA,0.119 ± 0.018
2,ACGTGCCC,-0.0993 ± 0.1
3,AGTCAAAG,-0.132 ± 0.081
4,ACGCACAA,-0.0487 ± 0.033
5,AATGAAGG,-0.264 ± 0.034
6,CCTCGATA,-0.172 ± 0.0073
7,GCTTCCTA,-0.256 ± 0.015
8,AACAAACG,-0.122 ± 0.015
9,AGTCTGGA,-0.244 ± 0.035
10,TCTCTACA,-0.048 ± 0.038
11,GCGGTCCC,-0.123 ± 0.0081
12,ATGAAAGC,0.0125 ± 0.027
13,TTAGGGAA,-0.163 ± 0.016
14,CAGAGAAC,-0.0252 ± 0.054
15,AGGCACGA,-0.0253 ± 0.043
16,ATAACGTC,-0.0778 ± 0.044
17,GCTTGAAA,-0.188 ± 0.036
18,GCGCTTCC,0.117 ± 0.046
19,GGCAGACA,-0.107 ± 0.048
20,GCCCCAAA,0.078 ± 0.024
21,TCGCTTCA,0.177 ± 0.02
22,CTTTGTCA,0.308 ± 0.036
23,ACCGCAAG,0.0383 ± 0.04
24,AGGAATGG,-0.152 ± 0.069
25,GATCATAC,-0.0142 ± 0.05

row,Sequence,PBM E-score of 8-mer
1,AGACTTCC,-0.0382 ± 0.12
2,CGACCTAG,0.069 ± 0.019
3,AATACACC,0.1241 ± 0.0005
4,ATACAAGC,-0.14 ± 0.025
5,CGACTGGC,-0.01 ± 0.034
6,ACATGTGA,0.298 ± 0.025
7,CAGGGTGG,0.0511 ± 0.034
8,CTGTTGAC,0.121 ± 0.061
9,ACTTTATA,-0.0251 ± 0.092
10,CAAAATAA,-0.0132 ± 0.13
11,ACGTCCTC,-0.0662 ± 0.049
12,AGATACGC,0.00658 ± 0.015
13,GATGACCA,-0.0866 ± 0.028
14,ATTCTACC,-0.0556 ± 0.0063
15,CACATATC,0.241 ± 0.013
16,ATCTGAGA,-0.13 ± 0.0037
17,ATTGACTC,-0.101 ± 0.052
18,ATGTTCGA,-0.159 ± 0.072
19,GTCAGGGA,-0.2613 ± 0.00032
20,AGCATAAC,0.00613 ± 0.055
21,GCTCGGTA,-0.177 ± 0.016
22,TACGGATA,-0.0533 ± 0.1
23,CTTTAGAC,-0.077 ± 0.03
24,GTCTATTA,-0.191 ± 0.067
25,CGTGGTTC,-0.164 ± 0.091

row,Sequence,PBM E-score of 8-mer
1,CACCCGTG,0.227 ± 0.018
2,AATTCCCC,-0.241 ± 0.038
3,TCCTGTCA,0.209 ± 0.015
4,CTAGGAAG,-0.281 ± 0.1
5,ACTGCCCC,-0.142 ± 0.0078
6,AAGTTCGC,0.227 ± 0.0055
7,AAGTACAT,-0.253 ± 0.087
8,GGAATGAA,-0.332 ± 0.032
9,TCAGTAGA,-0.00112 ± 0.0062
10,AGGCCTAG,-0.122 ± 0.02
11,AGTTCAAA,-0.254 ± 0.064
12,AACCCTAT,-0.209 ± 0.015
13,CAGAATAA,0.0126 ± 0.051
14,ATAAATAG,-0.107 ± 0.059
15,CTGCAGAC,-0.148 ± 0.043
16,GCATTATA,-0.136 ± 0.043
17,GCTCAATA,-0.0299 ± 0.077
18,CCAGATAC,-0.0705 ± 0.082
19,GGTGCGAC,0.462 ± 0.017
20,CAATCTAC,-0.0883 ± 0.0018
21,CTGAGTAC,-0.0358 ± 0.071
22,GCTCGGCA,-0.057 ± 0.025
